# Data taken from PubChem BioAssay AID686970 (National Center for Advancing Translational Sciences (NCATS), 2013).
# In all, about 360,000 compounds went through this assay and about 6,000 (1.7%) were called active. This list was built around the results that the source calls inconclusive (neither active nor inactive); the mix of calls is not that of the screen. Calls follow the shape of the dose curve; as a rule, active = well fitted cell-killing curve with a large enough effect; inconclusive = small, poorly fitted or top-dose-only effect, or effect the other way; inactive = flat fitted curve, though single readings scatter. No potency is given beside an inconclusive call; the fits are too rough.
# Experiment: qHTS for induction of synthetic lethality in tumor cells producing 2HG: qHTS for the HT-1080-NT fibrosarcoma cell line;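 also: NT is the 2HG producing partner of a matched IDH1 knockdown line; nearly all actives have a fitted effect of over 55% in size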;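 as to activity, negative = less viability: 0% = DMSO-treated cells and -100% = media-only wells without cells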
# Conditions: HT-1080-NT fibrosarcoma viability, CellTiter-Glo ATP luminescence, 48 h; activity, negative = less viability: at 46.1 µM (top of the series) unless noted
# Procedure, shortened: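 HT-1080-NT; 750 cells/well; 5% FBS RPMI; 48 h compound, 37 degrees C; CellTiter-Glo luminescence; curve fitting and curve-class assignment.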
# Potency is read from the fitted curve at half-maximal effect; tags tell the direction and shape of the fitted curve.
SMILES,Potency,"activity, negative = less viability"
CCC1C/C(=C\c2cccnc2)C(=O)/C(=C/c2cccnc2)C1 (stereo not drawn),"inconclusive [cytotoxic, partial curve, poor fit]",
CCN(CC(=O)Nc1cc(Cl)ccc1Cl)C(=O)c1ccc(-n2cccn2)cc1,inactive,
COc1ccc(O)c(-c2cc(-c3cccs3)[nH]n2)c1,"inconclusive [cytotoxic, partial curve]",
COc1cc(NC(=O)c2cc3c(=O)n(C)c4ccccc4c3n2C)cc(OC)c1OC,"inconclusive [cytotoxic, single point]",
COc1ccc(CN(C)C(=O)CCCNC(=O)c2ccc(Cl)cc2)cc1,inactive,
Cc1ccc(OCCCCNC2CCCC(C)C2C)c(C)c1 (stereo not drawn),active: 20.6 µM,
Cc1cn([C@H]2C[C@H](O)[C@@H](CCC(=O)NCc3ccc(N(C)C)cc3)O2)c(=O)[nH]c1=O,inactive,
Cc1ccc(NC(=O)Cn2ncc(Cl)c(Cl)c2=O)cc1S(=O)(=O)N1CCCCC1,"inconclusive [cytotoxic, single point]",
CCC(C)c1ccc(NC(=O)c2cccs2)cc1 (stereo not drawn),"inconclusive [cytotoxic, single point]",
Cc1ccc(CO/N=C\Cc2snc(Sc3ncc(C(F)(F)F)cc3Cl)c2C#N)cc1,inactive,
Cc1cccc(NC2=C(Cl)C(=O)OC2OC(=O)c2ccco2)c1 (stereo not drawn),"inconclusive [cytotoxic, single point]",
CCCCN(C)C(=O)c1ccc(Nc2nc(C(N)CCc3ccccc3)cs2)nc1 (stereo not drawn),active: 18.4 µM,
CSc1ccc(C2NC(=O)c3ccccc3N2)cc1 (stereo not drawn),active: 18.4 µM,
Cc1cc(Nc2ccc(Cl)cc2)nc(NCc2ccccc2)n1,"inconclusive [cytotoxic, single point]",
COc1ccc(C2=NOC(C(=O)NCc3ccco3)C2)cc1OC (stereo not drawn),active: 6.31 µM,
CC(C)n1nc(C(=O)Nc2cccc(S(=O)(=O)N3CCOCC3)c2)c2ccccc2c1=O,,inactive: -2.11% [at 9.24 µM]
Cc1nnn(C23C[C@@H]4C[C@@H](CC(C(=O)N5CCN(c6ccccc6)CC5)(C4)C2)C3)n1,inactive,
O=C1/C(=C/c2ccncc2)SC(=S)N1C1CCS(=O)(=O)C1 (stereo not drawn),"inconclusive [cytotoxic, single point]",
CCC(CO)NCC#Cc1ccccc1 (stereo not drawn),inactive,
S=C(NC1CCCCC1)NC1CC2CCC(C1)N2Cc1ccccc1 (stereo not drawn),inactive,
COc1ccc(OC)c2[nH]c(=O)c(CCNC(=O)c3cc4ccccc4o3)cc12,inactive,
CC(C)(C)N=C1NC(=NC(C)(C)C)c2ccccc21,"inconclusive [cytotoxic, single point]",
Cc1[nH]n(-c2ccc(Br)cc2)c(=O)c1/C=N/NC(=O)c1ccccc1,"inconclusive [cytotoxic, partial curve]",
Nc1c(C(=O)N2CCCCC2)sc2nc3c(cc12)CCCC3,inactive,
Cc1cccn2c(=O)c(C=O)c(Sc3ncccn3)nc12,inactive,

SMILES,Potency,"activity, negative = less viability"
COc1ccc(S(=O)(=O)N2N=C(C)Oc3ccccc3C2=O)cc1,active: 2.91 µM,
CCOC(=O)c1ccc(CNC(=O)c2n[nH]c(=O)c3ccccc23)o1,"inconclusive [cytotoxic, single point]",
COc1ccc(C(=O)/C=C/c2ccc3c(c2)OCCO3)cc1,,inconclusive: -37% [cytotoxic]
CCn1cc(C(=O)NCCCN2CCCC(C)C2)c(=O)c2cc(S(=O)(=O)N3CCc4ccccc4C3)ccc21 (stereo not drawn),"inconclusive [cytotoxic, single point]",
Cc1ccc(/C=C(\C#N)C(=O)NCC2CCCO2)o1 (stereo not drawn),"inconclusive [rising, partial curve, poor fit]",
CCN(C1CCS(=O)(=O)C1)S(=O)(=O)c1ccc(OC)c(OC)c1 (stereo not drawn),inactive,
O=C(c1ccccc1)c1c[nH]cc1-c1ccccc1,inactive,
COc1cc(S(=O)(=O)N2CCC(O)(c3cccc(C(F)(F)F)c3)CC2)ccc1-n1cnnn1,"inconclusive [cytotoxic, single point]",
CN(CC(=O)Nc1cccc(F)c1)CC(=O)Nc1cccc2ccccc12,inactive,
C[C@]12C=CC(=O)C=C1CC[C@@H]1[C@@H]2[C@@H](O)C[C@@]2(C)[C@H]1CC[C@]2(O)C(=O)COC(=O)CCC(=O)O,"inconclusive [rising, full curve]",
CCOC(=O)c1ncccc1NC(=O)CC(=O)Nc1cccnc1C(=O)OCC,"inconclusive [cytotoxic, single point]",
COc1ccc(-c2oc3ccccc3c2C(=O)OCc2ccc(O)cc2)cc1,"inconclusive [cytotoxic, single point]",
CC1(C)OC2CC3C4CC(F)C5=CC(=O)C=CC5(C)C4(F)C(O)CC3(C)C2(C(=O)CO)O1 (stereo not drawn),"inconclusive [rising, partial curve]",
COc1ccc(N(C(=O)c2ccccc2)S(=O)(=O)c2cccs2)cc1,active: 16.4 µM,
COc1ccc(OC)c(S(=O)(=O)Nc2ccc(-c3ccc4nncn4n3)cc2)c1,active: 23.1 µM,
CN(c1ccc(C(=O)Nc2cccnc2)cc1)S(=O)(=O)c1ccc(Cl)cc1,inactive,
Cc1cc(C)cc(Nc2nc(-c3ccc(S(=O)(=O)N4CCCC4)cc3)cs2)c1,"inconclusive [cytotoxic, single point]",
Cc1ccc(C)c(C(=O)COc2ncnc3ccccc23)c1,inactive,
COc1ccc(CCN2CC(C(=O)N3CCC(OC)CC3)CCC2=O)cc1 (stereo not drawn),inactive,
Cc1ccccc1[C@H](NC1c2ccccc2C=Cc2ccccc21)P(=O)(c1ccccc1)c1ccccc1,active: 14.6 µM,
Cc1c(C)n(Cc2ccccc2)c2ccc(C(=O)OCCCN(C)C)cc12,active: 14.6 µM,
CC(C)C(=O)NC(c1ccc(Cl)cc1Cl)c1ccc2cccnc2c1O (stereo not drawn),"inconclusive [cytotoxic, full curve]",
O=C(Nc1ccc2c(c1)OCO2)c1cc(C2CCCN(C(=O)CCCc3ccccc3)C2)on1 (stereo not drawn),active: 16.4 µM,
Cc1cc(/C=C2/SC(=S)N(c3cccc(Cl)c3)C2=O)c(C)n1-c1cccnc1,"inconclusive [cytotoxic, partial curve]",
O=C(NCc1nc2ccccc2[nH]1)C1=C[C@H](C2CCCCC2)C[C@H](OCc2ccc(CO)cc2)O1,"inconclusive [cytotoxic, single point]",

SMILES,Potency,"activity, negative = less viability"
O=C1Nc2ccc(Cl)cc2C(C#CC2CC2)(C(F)(F)F)O1 (stereo not drawn),"inconclusive [cytotoxic, single point]",
O=C(COc1ccccc1Cl)Nc1nnc(S(=O)(=O)N2CCCCCC2)s1,inactive,
CS(=O)(=O)c1ccc(C(=O)OCc2nnc(-c3ccc(Cl)cc3)o2)cc1[N+](=O)[O-],"inconclusive [cytotoxic, partial curve]",
CCc1ccc2oc(C(=O)NCCc3ccc(S(N)(=O)=O)cc3)cc(=O)c2c1,"inconclusive [cytotoxic, single point]",
CC(C)(C)C(=O)Nc1nnc(COc2ccc(Cl)cc2)s1,inactive,
Cc1nnc(NCc2n[nH]c(=O)c3ccccc23)c2ccccc12,active: 15.8 µM,
COc1ccc(-c2ccnc(-c3ccc(O)cc3)n2)cc1,active: 4.11 µM,
CCN1CCN(c2cc(C(C)C)nc3c(-c4ccccc4)c(C)nn23)CC1,"inconclusive [cytotoxic, single point]",
CC(CCc1ccccc1)NC(=O)c1ccc(-n2cncn2)c([N+](=O)[O-])c1 (stereo not drawn),inactive,
CCOc1ccc2[nH]c(C(=O)N/N=C/c3cccc(OC)c3OC)cc2c1,"inconclusive [cytotoxic, single point]",
Cc1ccc(-n2nc(C(=O)NCc3ccco3)c3c4ccccc4n(C)c3c2=O)cc1,"inconclusive [cytotoxic, single point]",
CCC1Oc2ccccc2N(CC(=O)NCCCN2CCN(c3ccc(OC)cc3)CC2)C1=O (stereo not drawn),inactive,
COc1ccc(CNc2cc(C)nc3ccc(OC)cc23)cc1,"inconclusive [cytotoxic, single point]",
CCOC(=O)C1=CCN(S(=O)(=O)c2ccc(C)cc2)C1c1ccc(Cl)cc1 (stereo not drawn),"inconclusive [cytotoxic, single point]",
O=C(c1cccc(F)c1)N1CCCC(C(=O)N2CCN(c3ccccc3)CC2)C1 (stereo not drawn),inactive,
Cc1cccc(C)c1C(O)c1ncc(-c2cccc3ccccc23)[nH]1 (stereo not drawn),"inconclusive [cytotoxic, full curve]",
COc1ccc(Cc2nc(-c3ccc(NC(=O)c4cccnc4)cc3)no2)cc1,"inconclusive [cytotoxic, partial curve]",
COc1ccccc1CNS(=O)(=O)c1ccc(-c2cnc(C3CC3)o2)cc1,active: 4.61 µM,
COc1ccnc(Oc2ccccc2)c1C(=O)N/C=N/OCc1ccc(F)cc1Cl,"inconclusive [cytotoxic, single point]",
O=[N+]([O-])c1cc(-c2ccc(/C=N/c3nc4ccccn4c3-c3ccco3)o2)ccc1Cl,inactive,
Cc1cccc(N(CC(=O)NC(C)(C)C)C(=O)CCC(=O)Nc2ccccn2)c1,inactive,
CCCn1c(SCC(=O)Nc2ccccc2N2CCCCC2)nc2c1c(=O)n(C)c(=O)n2C,active: 15.8 µM,
COc1ccc(-c2noc(C3CCCN(C(=O)c4ccc(C)cc4)C3)n2)cc1 (stereo not drawn),"inconclusive [cytotoxic, single point]",
